Test results reported in PubChem BioAssay (Tox21).
“And” between values parts separate entries of the source, which are not always exact repeats. Equal values may be shown once. This list was built around the results that the source calls inconclusive (neither active nor inactive); the mix of calls is not that of the screen. For part of these data: Where the call is inconclusive, the potency comes from a doubtful curve fit. The source made the active and inactive calls. Unless noted, calls follow the shape of the dose curve; as a rule, active = well fitted curve in the direction sought with a large enough effect in the repeat runs; inconclusive = weak or mixed curves; inactive = no such curve, though single readings can be large; an effect the other way counts as inactive or inconclusive.

Tests used:
[1] = qHTS assay to identify small molecule antagonists of the androgen receptor (AR) signaling pathway using the MDA cell line - cell viability counter screen (AID 743041; also: % is scaled to controls: 0 for no effect and ±100 for the full control effect; nearly all actives have a fitted effect of over 45% in size); conditions: MDA-kb2 viability, CellTiter-Fluor, 16 h, cells co-treated with R1881 androgen agonist; viability change, negative = cytotoxic: at 70.3 µM (top of the series) unless noted
Outline: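 Viability read by CellTiter-Fluor fluorescence in the same wells as the antagonist screen, added after 15.5 h of a 16 h, 37C exposure. Human breast carcinoma MDA-kb2 AR-luc cells, compounds co-dosed with agonist R1881.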

[2] = target: Estrogen receptor (Homo sapiens) (UniProt P03372); test: qHTS assay to identify small molecule agonists of the estrogen receptor alpha (ER-alpha) signaling pathway (AID 743075; calls by dose curve;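 also: HEK293 GripTite cells with ER-alpha and UAS-driven beta-lactamase reporter; potency is read from the fitted curve at half-maximal effect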)
UniProt P03372, sequence (P03372 whole entry, looked up): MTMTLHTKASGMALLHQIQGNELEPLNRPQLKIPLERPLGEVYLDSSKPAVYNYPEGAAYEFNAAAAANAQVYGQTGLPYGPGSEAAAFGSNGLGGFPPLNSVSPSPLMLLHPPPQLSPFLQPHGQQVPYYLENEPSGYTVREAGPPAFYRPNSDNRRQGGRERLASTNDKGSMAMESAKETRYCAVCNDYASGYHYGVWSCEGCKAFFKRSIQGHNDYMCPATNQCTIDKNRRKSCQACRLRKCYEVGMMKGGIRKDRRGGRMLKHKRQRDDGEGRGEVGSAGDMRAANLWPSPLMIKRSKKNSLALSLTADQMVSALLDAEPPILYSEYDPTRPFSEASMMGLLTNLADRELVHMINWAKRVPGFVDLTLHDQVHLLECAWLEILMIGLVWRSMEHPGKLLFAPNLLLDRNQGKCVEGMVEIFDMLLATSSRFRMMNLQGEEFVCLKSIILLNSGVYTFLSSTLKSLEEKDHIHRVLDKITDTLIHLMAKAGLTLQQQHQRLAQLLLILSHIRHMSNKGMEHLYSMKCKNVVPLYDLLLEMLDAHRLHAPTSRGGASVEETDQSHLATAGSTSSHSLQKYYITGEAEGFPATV

[3] = target: Estrogen receptor (Homo sapiens) (UniProt P03372); test: qHTS assay to identify small molecule agonists of the estrogen receptor alpha (ER-alpha) signaling pathway using the BG1 cell line (AID 743079); conditions: BG1Luc4E2 cells, ERE-luciferase agonist, 22 h; activation: at 70.3 µM (top of the series) unless noted; also: nearly all actives have a fitted effect of over 20% in size; also: potency is read from the fitted curve at half-maximal effect; as to activation: % is scaled to controls: 0 for no effect and ±100 for the full control effect
[4] = target: Aryl hydrocarbon receptor (Homo sapiens) (UniProt P35869); test: qHTS assay to identify small molecule that activate the aryl hydrocarbon receptor (AhR) signaling pathway (AID 743085); also: potency is read from the fitted curve at half-maximal effect; nearly all actives have a fitted effect of over 15% in size
UniProt P35869, sequence (P35869 whole entry, looked up): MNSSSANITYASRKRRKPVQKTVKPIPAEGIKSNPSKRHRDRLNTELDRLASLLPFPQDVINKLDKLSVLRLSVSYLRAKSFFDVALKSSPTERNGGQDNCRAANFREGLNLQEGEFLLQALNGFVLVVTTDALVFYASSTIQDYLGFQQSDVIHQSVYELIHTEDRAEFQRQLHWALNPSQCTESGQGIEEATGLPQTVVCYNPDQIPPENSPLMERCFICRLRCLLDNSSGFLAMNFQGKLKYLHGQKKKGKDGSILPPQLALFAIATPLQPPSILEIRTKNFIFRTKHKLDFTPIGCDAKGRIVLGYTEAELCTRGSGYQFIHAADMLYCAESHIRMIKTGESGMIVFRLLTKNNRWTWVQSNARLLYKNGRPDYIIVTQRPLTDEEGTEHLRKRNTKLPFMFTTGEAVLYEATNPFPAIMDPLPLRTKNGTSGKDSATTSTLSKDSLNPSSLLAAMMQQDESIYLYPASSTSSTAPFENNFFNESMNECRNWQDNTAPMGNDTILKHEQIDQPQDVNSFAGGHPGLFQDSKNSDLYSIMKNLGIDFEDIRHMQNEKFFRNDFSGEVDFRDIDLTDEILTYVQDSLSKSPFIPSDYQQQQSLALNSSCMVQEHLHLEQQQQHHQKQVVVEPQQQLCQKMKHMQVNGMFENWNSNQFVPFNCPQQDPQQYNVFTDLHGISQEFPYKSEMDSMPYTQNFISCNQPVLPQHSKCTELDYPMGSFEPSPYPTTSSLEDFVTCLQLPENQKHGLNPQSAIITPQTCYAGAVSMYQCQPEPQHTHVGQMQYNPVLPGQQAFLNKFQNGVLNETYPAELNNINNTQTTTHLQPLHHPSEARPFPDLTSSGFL
Outline: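 24 h compound exposure, 37C, HepG2-derived HG2L7.5c1 cells with DRE-responsive luciferase. Readouts: fluorescence viability, then luminescence at room temperature after 30 min.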

[5] = target: Peroxisome proliferator-activated receptor gamma (Homo sapiens) (UniProt P37231); test: qHTS assay to identify small molecule agonists of the peroxisome proliferator-activated receptor gamma (PPARg) signaling pathway (AID 743094; active = well fitted activation curve with a large enough effect in the signal ratio in the repeat runs, not every such curve was filed as active; inconclusive = weak or mixed curves, or effect the other way; inactive = no such curve, though single readings can be large or run the other way; the % refers to the signal ratio; also: % is scaled to controls: 0 for no effect and ±100 for the full control effect); conditions: HEK293H PPARg-UAS-bla, beta-lactamase FRET ratio, 17 h; activation: at 57 µM (top of the series) unless noted
UniProt P37231, sequence (P37231 whole entry, looked up): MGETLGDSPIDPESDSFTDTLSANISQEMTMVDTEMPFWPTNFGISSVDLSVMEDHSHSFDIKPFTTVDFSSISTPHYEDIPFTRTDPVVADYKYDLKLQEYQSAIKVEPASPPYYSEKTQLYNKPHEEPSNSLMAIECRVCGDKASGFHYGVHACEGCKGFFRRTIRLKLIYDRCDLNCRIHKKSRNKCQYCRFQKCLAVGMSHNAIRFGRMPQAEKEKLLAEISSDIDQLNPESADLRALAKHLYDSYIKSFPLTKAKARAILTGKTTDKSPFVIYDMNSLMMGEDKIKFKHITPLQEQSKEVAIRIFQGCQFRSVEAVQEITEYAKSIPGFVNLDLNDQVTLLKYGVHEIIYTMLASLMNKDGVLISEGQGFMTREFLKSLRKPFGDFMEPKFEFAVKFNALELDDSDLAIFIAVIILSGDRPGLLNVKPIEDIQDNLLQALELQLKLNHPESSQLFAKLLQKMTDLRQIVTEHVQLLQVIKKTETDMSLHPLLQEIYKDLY
Outline: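 HEK293H PPARg-bla cells, 5 h settle at 37C/5% CO2; compound (DMSO) 17 h, 37C; B/G FRET substrate 1 h RT; fluorescence intensity read-out. qHTS format.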

[6] = qHTS assay to identify small molecule antagonists of the thyroid receptor (TR) signaling pathway - cell viability counter screen (AID 743064); conditions: GH3.TRE-Luc viability, CellTiter-Fluor, 24 h; activity change, negative = cytotoxic: at 70.3 µM (top of the series) unless noted; also: potency is read from the fitted curve at half-maximal effect; nearly all actives have a fitted effect of over 50% in size
Outline: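 Compounds were tested on GH3.TRE-Luc cells in the presence of T3 at 1 nM final. Following 23.5 h at 37 °C, cell viability was quantified by CellTiter-Fluor.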

[7] = qHTS assay to identify small molecule antagonists of the thyroid receptor (TR) signaling pathway (AID 743065); also: nearly all actives have a fitted effect of over 55% in size; also: potency is read from the fitted curve at half-maximal effect
Outline: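 Antagonism measured as loss of luciferase signal in GH3 cells stably carrying a TRE-luciferase reporter, co-treated with compound and T3 (1 nM final) for 23.5 h at 37 C. Viability was read in the same well by CellTiter-Fluor.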

[8] = tested on: thyroid hormone receptor (rat, GH3 cells); test: qHTS assay to identify small molecule agonists of the thyroid receptor (TR) signaling pathway (AID 743066; calls by dose curve; also: % is scaled to controls: 0 for no effect and ±100 for the full control effect); conditions: GH3.TRE-Luc cells, TR agonist luciferase, 24 h; activation: at 83.9 µM (top of the series) unless noted
[9] = qHTS assay to identify small molecule antagonists of the estrogen receptor alpha (ER-alpha) signaling pathway - cell viability counter screen (AID 743074; calls by dose curve;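 also: HEK293 cells carrying ER-alpha-UAS-bla reporter stimulated with 17beta-estradiol; nearly all actives have a fitted effect of over 45% in size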; also: potency is read from the fitted curve at half-maximal effect)
[10] = qHTS assay to identify small molecule antagonists of the estrogen receptor alpha (ER-alpha) signaling pathway using the BG1 cell line - cell viability counter screen (AID 743081); conditions: BG1Luc4E2 viability, CellTiter-Fluor, 22 h; activity change, negative = cytotoxicity: at 70.3 µM (top of the series);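 also: compound given together with 17beta-estradiol as the ER stimulus; nearly all actives have a fitted effect of over 45% in size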; also: potency is read from the fitted curve at half-maximal effect
[11] = qHTS assay to identify aromatase inhibitors - cell viability counter screen (AID 743084); conditions: MCF-7 aro ERE viability, CellTiter-Fluor, 24 h; activity change, negative = cytotoxicity: at 70.3 µM (top of the series) unless noted;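 also: cells stimulated with testosterone during compound exposure; nearly all actives have a fitted effect of over 55% in size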; also: potency is read from the fitted curve at half-maximal effect
[12] = qHTS assay to identify small molecule that activate the aryl hydrocarbon receptor (AhR) signaling pathway - cell viability counter screen (AID 743086); also: potency is read from the fitted curve at half-maximal effect; nearly all actives have a fitted effect of over 45% in size
Outline: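 Cytotoxicity counter screen: CellTiter-Fluor signal (30 min, 37 C) in 4000 HepG2 cells/well carrying the DRE-luciferase reporter, following 24 h compound exposure at 37 C.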

[13] = target: Estrogen receptor (Homo sapiens) (UniProt P03372); test: qHTS assay to identify small molecule antagonists of the estrogen receptor alpha (ER-alpha) signaling pathway (AID 743069; active = well fitted curve in the direction sought with a large enough effect in the signal ratio in the repeat runs, not every such curve was filed as active; inconclusive = weak or mixed curves, or effect the other way; inactive = no such curve, though single readings can be large or run the other way; the % refers to the signal ratio; also: % is scaled to controls: 0 for no effect and ±100 for the full control effect); conditions: HEK293 ER-alpha-UAS-bla, beta-lactamase ratio, antagonist mode; activity, negative = inhibition: at 69.4 µM (top of the series) unless noted
Outline: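 Antagonist mode: compounds in DMSO were co-added with 17beta-estradiol to ER-alpha-bla HEK293 cells (2% charcoal-stripped serum) and left 18 h at 37C. Reporter inhibition was measured as FRET fluorescence after 2 h LiveBLAzer substrate at room temperature.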

[14] = qHTS assay to identify small molecule antagonists of the estrogen receptor alpha (ER-alpha) signaling pathway using the BG1 cell line (AID 743080; calls by dose curve;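 also: BG1 cells stimulated with 17beta-estradiol alongside compound; potency is read from the fitted curve at half-maximal effect; nearly all actives have a fitted effect of over 25% in size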); conditions: BG1Luc4E2 ERE-luciferase antagonist mode, luminescence; activity change, negative = inhibition: at 70.3 µM (top of the series) unless noted
Outline: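 BG1Luc4E2, endogenous ER-alpha, 4xERE-luc; 5 d charcoal-stripped FBS, phenol red free; 24 h plating; cpd + 17beta-estradiol 21.5 h, 37 C/5% CO2; CellTiter-Fluor viability 30 min, then ONE-Glo luciferase 30 min RT.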
Tags tell the direction and shape of the fitted curve or compound fluorescence and quenching.

COc1nc(C)nc(NC(=O)NS(=O)(=O)c2ccccc2Cl)n1
Potency [1]: inactive
Potency [2]: inconclusive: 54.2 µM [activator, partial curve, poor fit]
activation [3]: inconclusive: 10.2% [phenotype inactive]

Nc1ccc(Cl)c(Cl)c1
Potency [1]: inactive
Potency [4]: active: 55.7 µM and active: 61.1 µM
activation [5]: inconclusive: -10.8%

CC(C)N(C(=O)SCC(Cl)=C(Cl)Cl)C(C)C
Potency [6]: active: 47.9 µM and inconclusive: 61.1 µM [cytotoxic, single point]
Potency [7]: active: 53.8 µM and active: 61.1 µM
activation [8]: inconclusive: -7.22% [phenotype inactive]
Potency [9]: inactive

COc1ccc2c(c1OC)C(=O)O[C@@H]2[C@H]1c2cc3c(cc2CCN1C)OCO3
Potency [6]: active: 6.79 µM
Potency [7]: inactive
Potency [10]: inconclusive: 30.3 µM [cytotoxic, partial curve]
Potency [11]: active: 2.15 µM
Potency [12]: inconclusive: 6.79 µM [falling, full curve]

C=CC(=O)OCCO
Potency [6]: inconclusive: 55.3 µM [cytotoxic, partial curve, poor fit]
Potency [7]: inconclusive: 69.6 µM [inhibitor, single point]
Potency [9]: inconclusive: 61.6 µM [rising, single point]

NCCc1cc(O)c(O)cc1O
Potency [6]: inconclusive: 33.5 µM [cytotoxic, single point]
Potency [7]: inconclusive: 33.5 µM [inhibitor, single point]
Potency [10]: inactive
Potency [11]: inactive

CCOc1cc(Oc2ccc(C(F)(F)F)cc2Cl)ccc1[N+](=O)[O-]
Potency [6]: inconclusive: 69.4 µM [cytotoxic, single point] and inconclusive: 68.6 µM [cytotoxic, single point]
Potency [7]: inconclusive: 69.4 µM [inhibitor, single point] and inconclusive: 68.6 µM [inhibitor, single point]
activity, negative = inhibition [13]: inconclusive: -23.2% [at 79.1 µM]
Potency [3]: inconclusive: 55.1 µM [inhibitor, partial curve] and inconclusive: 48.6 µM [inhibitor, partial curve]
Potency [14]: active: 31 µM and inconclusive: 27.3 µM
